Measured values reported in article PMC3963969.
No constants are given. Whether binding was seen depends on the method and setting. Binding seen in cells or lysates may run through a third protein. Some results given as binding are weak or reduced against the parent protein; the word gives no strength. For some assays here: Where a sequence is shown, tags or fusion partners need not be part of it.

The chains behind the UniProt entries cited, without tags or fusion partners. Where a name states a change or a piece, a line headed by the entry shows the natural chain unless it says otherwise.
UniProt Q02099: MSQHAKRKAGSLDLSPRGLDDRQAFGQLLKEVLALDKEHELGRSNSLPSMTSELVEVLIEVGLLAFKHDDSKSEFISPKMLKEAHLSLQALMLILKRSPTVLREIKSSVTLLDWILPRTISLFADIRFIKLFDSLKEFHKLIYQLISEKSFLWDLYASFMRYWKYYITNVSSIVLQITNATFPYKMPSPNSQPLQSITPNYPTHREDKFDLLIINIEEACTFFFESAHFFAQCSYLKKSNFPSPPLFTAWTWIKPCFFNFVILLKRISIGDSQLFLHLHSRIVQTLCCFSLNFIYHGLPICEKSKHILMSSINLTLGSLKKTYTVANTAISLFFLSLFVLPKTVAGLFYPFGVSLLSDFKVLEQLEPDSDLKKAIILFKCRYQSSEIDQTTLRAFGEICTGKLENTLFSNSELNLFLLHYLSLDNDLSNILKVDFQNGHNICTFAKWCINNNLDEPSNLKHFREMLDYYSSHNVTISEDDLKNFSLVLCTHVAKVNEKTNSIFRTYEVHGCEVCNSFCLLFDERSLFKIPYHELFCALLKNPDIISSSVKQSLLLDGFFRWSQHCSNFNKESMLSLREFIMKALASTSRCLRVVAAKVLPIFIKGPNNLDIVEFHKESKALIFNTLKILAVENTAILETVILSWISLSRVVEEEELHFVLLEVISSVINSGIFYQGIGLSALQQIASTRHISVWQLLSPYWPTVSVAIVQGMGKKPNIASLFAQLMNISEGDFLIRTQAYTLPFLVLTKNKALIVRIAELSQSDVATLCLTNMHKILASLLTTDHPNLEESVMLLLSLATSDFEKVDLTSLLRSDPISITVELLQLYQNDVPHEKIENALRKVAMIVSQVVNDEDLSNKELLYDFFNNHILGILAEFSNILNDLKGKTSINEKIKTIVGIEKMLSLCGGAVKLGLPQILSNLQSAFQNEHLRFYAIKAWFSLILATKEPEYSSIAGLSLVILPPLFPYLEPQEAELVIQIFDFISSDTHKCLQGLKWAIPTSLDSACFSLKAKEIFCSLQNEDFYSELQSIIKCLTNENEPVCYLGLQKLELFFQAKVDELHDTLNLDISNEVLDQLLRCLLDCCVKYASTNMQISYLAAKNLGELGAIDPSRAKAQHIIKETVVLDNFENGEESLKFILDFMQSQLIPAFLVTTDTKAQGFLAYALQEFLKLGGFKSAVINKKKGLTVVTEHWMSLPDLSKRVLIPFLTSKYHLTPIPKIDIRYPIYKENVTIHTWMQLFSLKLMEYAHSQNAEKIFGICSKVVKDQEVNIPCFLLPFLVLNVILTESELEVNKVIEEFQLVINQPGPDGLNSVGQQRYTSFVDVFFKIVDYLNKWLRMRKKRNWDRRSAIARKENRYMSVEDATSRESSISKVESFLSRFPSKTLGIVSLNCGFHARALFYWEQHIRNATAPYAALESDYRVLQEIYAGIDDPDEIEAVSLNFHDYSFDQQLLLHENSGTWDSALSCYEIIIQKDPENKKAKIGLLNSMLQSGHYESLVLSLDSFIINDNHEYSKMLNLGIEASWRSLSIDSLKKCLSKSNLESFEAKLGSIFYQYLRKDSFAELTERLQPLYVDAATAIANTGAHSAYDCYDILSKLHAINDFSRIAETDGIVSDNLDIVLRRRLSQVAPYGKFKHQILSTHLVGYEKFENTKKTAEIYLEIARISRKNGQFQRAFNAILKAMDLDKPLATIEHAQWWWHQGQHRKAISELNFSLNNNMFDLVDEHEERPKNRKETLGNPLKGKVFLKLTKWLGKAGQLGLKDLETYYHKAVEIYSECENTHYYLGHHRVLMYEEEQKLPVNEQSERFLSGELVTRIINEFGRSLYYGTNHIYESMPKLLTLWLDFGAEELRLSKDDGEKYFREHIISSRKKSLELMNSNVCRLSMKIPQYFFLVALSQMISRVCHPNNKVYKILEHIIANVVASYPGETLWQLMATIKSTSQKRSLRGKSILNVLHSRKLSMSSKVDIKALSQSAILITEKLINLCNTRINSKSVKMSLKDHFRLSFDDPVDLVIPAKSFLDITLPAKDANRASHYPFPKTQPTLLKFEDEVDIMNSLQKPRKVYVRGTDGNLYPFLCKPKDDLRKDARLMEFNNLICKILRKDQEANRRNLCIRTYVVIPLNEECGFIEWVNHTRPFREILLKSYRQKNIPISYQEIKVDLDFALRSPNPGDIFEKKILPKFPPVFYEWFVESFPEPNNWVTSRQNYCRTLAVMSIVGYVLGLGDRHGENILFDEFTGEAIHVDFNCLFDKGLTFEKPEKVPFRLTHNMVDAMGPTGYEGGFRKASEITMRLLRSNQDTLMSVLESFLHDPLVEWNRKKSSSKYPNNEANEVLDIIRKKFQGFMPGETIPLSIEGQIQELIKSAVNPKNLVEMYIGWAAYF

T1: Rad26-Flag (S. pombe) (UniProt P36632)
T1 sequence: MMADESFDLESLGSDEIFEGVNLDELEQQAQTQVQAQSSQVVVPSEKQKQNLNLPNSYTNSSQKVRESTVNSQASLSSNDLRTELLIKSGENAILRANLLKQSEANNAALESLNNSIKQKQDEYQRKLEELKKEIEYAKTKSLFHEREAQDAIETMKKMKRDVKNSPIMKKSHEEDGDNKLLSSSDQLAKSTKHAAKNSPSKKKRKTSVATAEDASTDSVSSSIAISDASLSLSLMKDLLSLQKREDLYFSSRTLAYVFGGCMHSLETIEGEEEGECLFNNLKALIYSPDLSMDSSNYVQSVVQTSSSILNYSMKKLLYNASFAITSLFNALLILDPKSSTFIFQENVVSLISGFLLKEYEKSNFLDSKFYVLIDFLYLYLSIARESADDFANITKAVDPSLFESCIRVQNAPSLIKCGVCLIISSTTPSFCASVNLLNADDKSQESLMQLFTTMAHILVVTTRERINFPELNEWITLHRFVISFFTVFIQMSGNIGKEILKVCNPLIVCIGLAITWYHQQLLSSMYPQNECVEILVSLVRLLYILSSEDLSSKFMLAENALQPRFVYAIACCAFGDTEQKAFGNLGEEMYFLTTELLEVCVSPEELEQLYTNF

T2: HA-Crb2 (S. pombe) (UniProt P87074)
T2 sequence: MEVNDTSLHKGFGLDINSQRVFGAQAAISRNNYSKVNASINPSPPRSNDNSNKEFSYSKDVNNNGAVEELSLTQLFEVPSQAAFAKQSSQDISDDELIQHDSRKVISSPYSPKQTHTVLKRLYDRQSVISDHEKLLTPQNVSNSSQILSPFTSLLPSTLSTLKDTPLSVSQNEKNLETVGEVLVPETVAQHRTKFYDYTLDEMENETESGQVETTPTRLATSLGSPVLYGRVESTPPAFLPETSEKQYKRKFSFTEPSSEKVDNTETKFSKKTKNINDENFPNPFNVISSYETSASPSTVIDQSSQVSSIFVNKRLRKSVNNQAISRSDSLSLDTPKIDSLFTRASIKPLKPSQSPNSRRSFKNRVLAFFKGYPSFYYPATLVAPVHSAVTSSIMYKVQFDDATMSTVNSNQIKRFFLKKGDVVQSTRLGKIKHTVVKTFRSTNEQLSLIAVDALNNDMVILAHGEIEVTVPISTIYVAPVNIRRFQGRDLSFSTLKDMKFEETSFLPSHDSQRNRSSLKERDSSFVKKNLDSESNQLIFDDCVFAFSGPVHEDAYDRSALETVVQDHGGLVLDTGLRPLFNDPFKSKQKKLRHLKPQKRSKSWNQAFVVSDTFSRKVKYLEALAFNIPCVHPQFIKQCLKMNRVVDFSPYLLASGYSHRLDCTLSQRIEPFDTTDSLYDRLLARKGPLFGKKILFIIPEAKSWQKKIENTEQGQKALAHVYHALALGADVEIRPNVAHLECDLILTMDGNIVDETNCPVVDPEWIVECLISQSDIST

T3: HA-Rad9, phosphorylated at Thr412 (S. pombe) (UniProt P26306)
T3 sequence (chain, phosphothreonine at 412 (detected with the phospho-specific antibody)): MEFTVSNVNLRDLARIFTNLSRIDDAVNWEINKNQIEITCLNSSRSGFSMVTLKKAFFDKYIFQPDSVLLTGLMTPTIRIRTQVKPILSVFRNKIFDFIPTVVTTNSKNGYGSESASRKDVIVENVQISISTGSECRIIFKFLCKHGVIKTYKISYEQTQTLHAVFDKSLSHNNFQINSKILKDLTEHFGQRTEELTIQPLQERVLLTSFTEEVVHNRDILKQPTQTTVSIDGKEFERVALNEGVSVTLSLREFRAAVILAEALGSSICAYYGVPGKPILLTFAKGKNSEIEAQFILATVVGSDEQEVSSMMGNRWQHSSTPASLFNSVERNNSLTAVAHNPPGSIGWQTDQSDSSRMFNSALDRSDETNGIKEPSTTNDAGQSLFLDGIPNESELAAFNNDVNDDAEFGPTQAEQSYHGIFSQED

T4: Rad9-T412A (phosphorylation site mutant) (S. pombe) (UniProt P26306)
T4 sequence: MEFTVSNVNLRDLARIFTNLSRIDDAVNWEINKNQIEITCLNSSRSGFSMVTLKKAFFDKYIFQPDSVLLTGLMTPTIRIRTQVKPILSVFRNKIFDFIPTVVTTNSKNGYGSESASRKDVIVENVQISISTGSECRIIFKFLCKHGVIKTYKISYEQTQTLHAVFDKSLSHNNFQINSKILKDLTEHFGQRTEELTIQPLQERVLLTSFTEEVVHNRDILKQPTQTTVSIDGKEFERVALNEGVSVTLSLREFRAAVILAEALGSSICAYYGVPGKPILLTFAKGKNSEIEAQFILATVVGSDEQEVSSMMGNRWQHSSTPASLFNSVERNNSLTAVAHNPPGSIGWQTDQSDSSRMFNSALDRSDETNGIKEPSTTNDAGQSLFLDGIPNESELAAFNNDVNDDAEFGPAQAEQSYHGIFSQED


Columns and labels:
Rad26-Flag (S. pombe) = target: T1, Rad26-Flag (S. pombe); test: co-IP; Rad3-Rad26-Flag from S. pombe cell extract on anti-Flag M2 antibody beads, washed in TBS-T, eluted with Flag peptide; Rad3 detected with anti-HA, Rad26 with anti-Flag
HA-Crb2 (S. pombe) = target: T2, HA-Crb2 (S. pombe); test: co-IP; HA-Rad9 or HA-Crb2 precipitated with anti-HA antibody beads from lysates of MMS- or HU-treated S. pombe; Rad4 detected with anti-Rad4 antibodies
[1] = target: T3, HA-Rad9, phosphorylated at Thr412 (S. pombe); test: as above
[2] = target: T4, Rad9-T412A (phosphorylation site mutant) (S. pombe); test: as above
[3] = target: T3, HA-Rad9, phosphorylated at Thr412 (S. pombe); test: condition: only after λ phosphatase treatment of the beads; co-IP; Rad4 co-IPed with Rad9 from HU-treated cells on anti-HA antibody beads; beads then treated with λ phosphatase with or without phosphatase inhibitor and washed

binding (HA-Crb2 (S. pombe)) | binding [1] | Molecule | other results
– | – | Rad3(D2249E), kinase-inactive (from UniProt Q02099 1-2386) (enzyme) | binding (Rad26-Flag (S. pombe)): binds
– | – | Rad3 (from UniProt Q02099 1-2386) (enzyme) | binding (Rad26-Flag (S. pombe)): binds
binds | binds | Rad4 (wild type) (protein, UniProt P32372 1-648) MGSSKPLKGFVICCTSIDLKQRTEISTKATKLGAAYRSDFTKDVTHLIAGDFDTPKYKFAAKSRPDIKIMSSEWIPVLYESWVQGEDLDDGLLVDKHFLPTLFKCRVCLTNIGQPERSRIENYVLKHGGTFCPDLTRDVTHLIAGTSSGRKYEYALKWKINVVCVEWLWQSIQRNAVLEPQYFQLDMPAEKIGLGAYVRLDPNTTEAKSYSENQKISKNKEKSGQSLAALAEEADLEPVIMKRGKKRDRSILWEELNNGKFEFSSRSEENSVLLDDFTPETVQPLEENELDTELNIENEAKLFKNLTFYLYEFPNTKVSRLHKCLSDNGGQISEFLSSTIDFVVIPHYFPVDELPIFSFPTVNEWWIERCLYYKKIFGIDEHALAKPFFRPSLVPYFNGLSIHLTGFKGEELSHLKKALTILGAVVHEFLGVQRSILLVNTNEPFSMKTRFKIQHATEWNVRVVGVAWLWNIIQSGKFIDQVSPWAIDKKENQEIKKFTNQNNMVFPTSDRDTRLQNSLAQQPIGHSTPHNSPSLLSVKKRQNNHIRSNTLIQLNSNSKDSTIFPRRSVTVPGDKIDTVWKSSVTKPETPTSPQEHVSYIDPDAQREKHKLYAQLTSNVDAIPPANDLQNQENGLLLITESHRKLRRR | binding [2]: no binding; binding [3]: no binding
no binding | binds | Rad4 C13Y-K56R (protein, UniProt P32372 1-648) MGSSKPLKGFVIYCTSIDLKQRTEISTKATKLGAAYRSDFTKDVTHLIAGDFDTPRYKFAAKSRPDIKIMSSEWIPVLYESWVQGEDLDDGLLVDKHFLPTLFKCRVCLTNIGQPERSRIENYVLKHGGTFCPDLTRDVTHLIAGTSSGRKYEYALKWKINVVCVEWLWQSIQRNAVLEPQYFQLDMPAEKIGLGAYVRLDPNTTEAKSYSENQKISKNKEKSGQSLAALAEEADLEPVIMKRGKKRDRSILWEELNNGKFEFSSRSEENSVLLDDFTPETVQPLEENELDTELNIENEAKLFKNLTFYLYEFPNTKVSRLHKCLSDNGGQISEFLSSTIDFVVIPHYFPVDELPIFSFPTVNEWWIERCLYYKKIFGIDEHALAKPFFRPSLVPYFNGLSIHLTGFKGEELSHLKKALTILGAVVHEFLGVQRSILLVNTNEPFSMKTRFKIQHATEWNVRVVGVAWLWNIIQSGKFIDQVSPWAIDKKENQEIKKFTNQNNMVFPTSDRDTRLQNSLAQQPIGHSTPHNSPSLLSVKKRQNNHIRSNTLIQLNSNSKDSTIFPRRSVTVPGDKIDTVWKSSVTKPETPTSPQEHVSYIDPDAQREKHKLYAQLTSNVDAIPPANDLQNQENGLLLITESHRKLRRR | –
– | no binding | Rad4 E368K (protein, UniProt P32372 1-648) MGSSKPLKGFVICCTSIDLKQRTEISTKATKLGAAYRSDFTKDVTHLIAGDFDTPKYKFAAKSRPDIKIMSSEWIPVLYESWVQGEDLDDGLLVDKHFLPTLFKCRVCLTNIGQPERSRIENYVLKHGGTFCPDLTRDVTHLIAGTSSGRKYEYALKWKINVVCVEWLWQSIQRNAVLEPQYFQLDMPAEKIGLGAYVRLDPNTTEAKSYSENQKISKNKEKSGQSLAALAEEADLEPVIMKRGKKRDRSILWEELNNGKFEFSSRSEENSVLLDDFTPETVQPLEENELDTELNIENEAKLFKNLTFYLYEFPNTKVSRLHKCLSDNGGQISEFLSSTIDFVVIPHYFPVDELPIFSFPTVNEWWIKRCLYYKKIFGIDEHALAKPFFRPSLVPYFNGLSIHLTGFKGEELSHLKKALTILGAVVHEFLGVQRSILLVNTNEPFSMKTRFKIQHATEWNVRVVGVAWLWNIIQSGKFIDQVSPWAIDKKENQEIKKFTNQNNMVFPTSDRDTRLQNSLAQQPIGHSTPHNSPSLLSVKKRQNNHIRSNTLIQLNSNSKDSTIFPRRSVTVPGDKIDTVWKSSVTKPETPTSPQEHVSYIDPDAQREKHKLYAQLTSNVDAIPPANDLQNQENGLLLITESHRKLRRR | –
– | binds | Rad4(ΔC), deletion of the whole C-terminus between amino acid 498 and 648 (domain or fragment, UniProt P32372 1-497) MGSSKPLKGFVICCTSIDLKQRTEISTKATKLGAAYRSDFTKDVTHLIAGDFDTPKYKFAAKSRPDIKIMSSEWIPVLYESWVQGEDLDDGLLVDKHFLPTLFKCRVCLTNIGQPERSRIENYVLKHGGTFCPDLTRDVTHLIAGTSSGRKYEYALKWKINVVCVEWLWQSIQRNAVLEPQYFQLDMPAEKIGLGAYVRLDPNTTEAKSYSENQKISKNKEKSGQSLAALAEEADLEPVIMKRGKKRDRSILWEELNNGKFEFSSRSEENSVLLDDFTPETVQPLEENELDTELNIENEAKLFKNLTFYLYEFPNTKVSRLHKCLSDNGGQISEFLSSTIDFVVIPHYFPVDELPIFSFPTVNEWWIERCLYYKKIFGIDEHALAKPFFRPSLVPYFNGLSIHLTGFKGEELSHLKKALTILGAVVHEFLGVQRSILLVNTNEPFSMKTRFKIQHATEWNVRVVGVAWLWNIIQSGKFIDQVSPWAIDKKENQEIKK | –
binds | – | Rad9 as co-precipitated with Crb2 (protein, UniProt P26306 1-426) MEFTVSNVNLRDLARIFTNLSRIDDAVNWEINKNQIEITCLNSSRSGFSMVTLKKAFFDKYIFQPDSVLLTGLMTPTIRIRTQVKPILSVFRNKIFDFIPTVVTTNSKNGYGSESASRKDVIVENVQISISTGSECRIIFKFLCKHGVIKTYKISYEQTQTLHAVFDKSLSHNNFQINSKILKDLTEHFGQRTEELTIQPLQERVLLTSFTEEVVHNRDILKQPTQTTVSIDGKEFERVALNEGVSVTLSLREFRAAVILAEALGSSICAYYGVPGKPILLTFAKGKNSEIEAQFILATVVGSDEQEVSSMMGNRWQHSSTPASLFNSVERNNSLTAVAHNPPGSIGWQTDQSDSSRMFNSALDRSDETNGIKEPSTTNDAGQSLFLDGIPNESELAAFNNDVNDDAEFGPTQAEQSYHGIFSQED | –
